“And” between values parts separate entries of the source, which are not always exact repeats. Equal entries are not always repeated. The whole screen tested about 150,000 compounds, of which about 6,500 (4.3%) were called active. This list was built around the results that the source calls inconclusive (neither active nor inactive); the mix of calls is not that of the screen. Calls come from the whole dose curve; as a rule, active = well fitted inhibition curve with a large enough effect (not every such curve was filed as active); inconclusive = small, poorly fitted or top-dose-only effect, or another doubt; inactive = no such curve, though single readings can be large or run the other way. A potency beside an inconclusive call is a rough fit, not a confirmed value.
Each compound was assayed against 15-hydroxyprostaglandin dehydrogenase [NAD(+)] (Homo sapiens) (UniProt P15428) (assay: qHTS Assay for Inhibitors of HPGD (15-Hydroxyprostaglandin Dehydrogenase)). Conditions: purified HPGD, NADH fluorescence kinetic, PGE2 substrate; activity change, negative = inhibition: hits give low values.
In short: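 NADH formation kinetics: reaction with 30 uM PGE2 and 1 mM NAD+ (final), 20 nM enzyme, Tris-HCl pH 8 with Tween 20, after 15 min compound preincubation at room temperature. Fluorescence change, last versus first of five reads.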
% is set by controls: 0 for no effect and ±100 for the full control effect; potency is the fitted concentration of half-maximal effect; tags give direction and shape of the fitted curve.

Sequence of UniProt P15428 (P15428 whole entry, looked up): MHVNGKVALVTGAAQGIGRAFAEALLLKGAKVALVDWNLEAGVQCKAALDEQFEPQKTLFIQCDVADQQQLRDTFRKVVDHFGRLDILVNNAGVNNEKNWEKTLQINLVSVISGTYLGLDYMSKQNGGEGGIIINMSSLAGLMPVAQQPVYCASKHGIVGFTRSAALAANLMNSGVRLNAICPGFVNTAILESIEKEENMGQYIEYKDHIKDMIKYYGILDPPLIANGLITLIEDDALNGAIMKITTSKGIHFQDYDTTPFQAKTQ

Potency, inconclusive:
Fc1ccc(-c2ccnc3nc(N4CCOCC4)nn23)cc1 28.2 µM [inhibitor, partial curve]
COc1ccc(C2CC(c3cccs3)n3nc(N)nc3N2)cc1 (stereo unspecified) 39.8 µM [inhibitor, single point]
COCCn1c(=O)c(-c2cc(F)cc(F)c2)nc2cnc(OC)nc21 31.6 µM [inhibitor, partial curve]
COc1ccc(C(=O)N/N=C/c2ccc3cccc(OCc4ccccc4)c3n2)cc1 28.2 µM [inhibitor, partial curve]
COc1ccc(-c2ccc(C#N)c(SCC(=O)Nc3sc4c(c3C#N)CCC4)n2)cc1OC 25.1 µM [inhibitor, partial curve]
CC1=CC(C)(C)Nc2ccc(C)cc21 39.8 µM [inhibitor, single point]
O=C(Nc1ccc(-c2nc3cc(Cl)ccc3o2)cc1)C1CCCO1 (stereo unspecified) 11.2 µM [inhibitor, partial curve, poor fit]
COc1ccc(CNC(=O)C(C)N(Cc2ccco2)C(=O)c2snc(C(N)=O)c2N)cc1 (stereo unspecified) 28.2 µM [inhibitor, partial curve]
CC(=O)Oc1c(/C=C(\C#N)C(N)=O)[nH]c2ccccc12 17.8 µM [inhibitor, partial curve]
O=C(CCN1C(=O)C2C3C=CC(C3)C2C1=O)N1CCN(c2ccccn2)CC1 (stereo unspecified) 39.8 µM [inhibitor, single point]
O=c1cnc2cnc(N3CCNCC3)nc2n1Cc1cccs1 28.2 µM [inhibitor, partial curve]
Nc1cccc(C(=O)O)c1 28.2 µM [inhibitor, partial curve]
O=C(CN1C(=O)/C(=C\c2cccc(F)c2)Oc2ccccc21)N1CCN(c2ccccn2)CC1 14.1 µM [inhibitor, partial curve]
CCOC(=O)c1c(NC(=O)C(C)N2CCN(C(=O)c3ccco3)CC2)sc2c1CCCC2 (stereo unspecified) 31.6 µM [inhibitor, partial curve]
CCn1nnc(-c2ccccc2NC(=O)c2cccc(-n3cnnn3)c2)n1 25.1 µM [inhibitor, partial curve]
NS(=O)(=O)c1cc(C(=O)O)cc(N2CCCC2)c1Oc1ccccc1 14.1 µM [inhibitor, partial curve]
O=C(N/N=C/c1ccc[nH]1)c1sc2ccccc2c1Cl 20 µM [inhibitor, partial curve]
COc1cc(Cl)ccc1NC(=S)N(CCCN1CCOCC1)Cc1cn(C)c2ccccc12 35.5 µM [inhibitor, single point]
Cc1cccc(-n2ncc3c(NCc4cccs4)ncnc32)c1 10 µM [inhibitor, partial curve]
O=C(Cc1ccccc1)Nc1ccc2oc(-c3ccncc3)nc2c1 8.91 µM [inhibitor, partial curve]
O=C(COc1cccc(Cl)c1)Nc1nc(-c2ccc(S(=O)(=O)N3CCOCC3)cc2)cs1 17.8 µM [inhibitor, partial curve]
Cc1ccc(-c2cc(=O)c3cc(C)ccc3[nH]2)cc1 28.2 µM [inhibitor, single point] and 17.8 µM [inhibitor, partial curve]
Cc1sc2nc3c4ccccc4c(NCc4ccco4)nn3c(=O)c2c1C 28.2 µM [inhibitor, partial curve]
N#C/C(=C\c1ccc(-c2ccc([N+](=O)[O-])cc2Br)o1)C(=O)N1CCN(c2ccccc2)CC1 31.6 µM [inhibitor, single point]
COc1ccc(N2C(=O)[C@@H]3[C@H](C2=O)[C@H]2c4ccccc4C=CN2[C@@H]3C(C)=O)cc1 35.5 µM [inhibitor, single point]
NC(N)=N/N=C\c1ccc(O)c(C(=O)O)c1 3.16 µM [inhibitor, single point]
CCCCN(CCCNC(=O)C1CCN(S(=O)(=O)CC)CC1)c1ccccc1 39.8 µM [inhibitor, single point]
O=C(Nc1ccc(-c2nc3ccccc3o2)cc1)C1CCCO1 (stereo unspecified) 25.1 µM [inhibitor, partial curve]
CCOc1ccc(-c2nc(C#N)c(N3CCOCC3)o2)cc1 28.2 µM [inhibitor, partial curve]
CN(C)CCCNC(=O)/C=C/c1ccc2c(c1)OCO2 28.2 µM [inhibitor, partial curve]
O=C(Nc1cccc(NC(=O)c2sc3ccccc3c2Cl)c1)c1ccco1 39.8 µM [inhibitor, partial curve]
CCOC(=O)c1sc(=NC(=O)c2ccc(OC)c(OC)c2)n(C)c1C 35.5 µM [inhibitor, partial curve]
CCCn1c(-c2cccs2)nc2ccccc21 28.2 µM [inhibitor, partial curve]
CCSc1nc2c(c(=O)[nH]1)C(c1cccs1)C(C(=O)OC)=C(C)N2 (stereo unspecified) 39.8 µM [inhibitor, single point]
CC[n+]1c(/C=C/N(C)c2ccccc2)oc2ccc(Cl)cc21 35.5 µM [inhibitor, single point]
CCCn1c(-c2cccs2)nc2nc3ccccc3nc21 11.2 µM [inhibitor, partial curve]
Cc1cc[n+]2c3c(cccc13)CCC2 35.5 µM [inhibitor, partial curve]
Cc1ccc2nc(N3CCN(S(=O)(=O)c4ccc5c(c4)OCCO5)CC3)c(C#N)cc2c1 31.6 µM [inhibitor, partial curve]
CCc1c(C)sc(NC(=O)c2cc(-c3ccc(O)cc3)on2)c1C#N 31.6 µM [inhibitor, partial curve]
Cc1c(Cl)cnc(NC(=O)CSc2nncs2)c1Cl 22.4 µM [inhibitor, partial curve]
CC1(C(=O)NC2CCCCCCC2)CC1(Cl)Cl (stereo unspecified) 31.6 µM [inhibitor, partial curve]
Cc1nc2cnc(N3CCNCC3)nc2n(C2CC2)c1=O 28.2 µM [inhibitor, partial curve]

Potency, active:
S=C(c1ccc(N2CCCC2)cc1)N1CCCCC1 14.1 µM
Cc1ccc(C(=O)N2CCCCCC2)cc1Br 5.01 µM
Cc1ccc(S(=O)(=O)/C(C#N)=C/c2c(N3CCOCC3)nc3ccccn3c2=O)cc1 15.8 µM
O=C(CN1CCOCC1)Nc1ccc(C2CCCCC2)cc1 15.8 µM
Cc1cc(C(=O)NCc2ccccc2F)cs1 15.8 µM
Cc1cccc(CCNC(=O)C2CCC(CNc3c(N4CCCC4)c(=O)c3=O)CC2)c1 (stereo unspecified) 12.6 µM
Cc1ccccc1C(=O)NCC(=O)NNC(=S)NC(=O)c1ccccc1C 25.1 µM
CCOC(=O)C1CCN(c2c(NCc3ccc(C(=O)NCCC(C)C)cc3)c(=O)c2=O)CC1 3.55 µM
N#CCc1nc(CSc2nc3ccccc3s2)cs1 25.1 µM
O=C(CSc1cn(CCNC(=O)c2cccs2)c2ccccc12)NC1CCCC1 20 µM
Cc1ccc(C(=O)N2CCCC(c3nc4c(nnn4Cc4ccccc4)c(=O)[nH]3)C2)cc1 (stereo unspecified) 3.55 µM
COc1ccc(Nc2c3c(c(C#N)c4nc5ccccc5n24)CCC3)cc1 1.26 µM
Cc1ccccc1Nc1nnc(SCc2cc(=O)n3ccsc3n2)s1 28.2 µM
C/C(=N\NC(=O)C1(C)CC1(Br)Br)c1ccc(NC(=O)c2ccc(C)o2)cc1 (stereo unspecified) 17.8 µM
C=CCn1c(=S)[nH]c2sc3c(c2c1=O)CCC3 31.6 µM
Cc1nc(N2CCN(C(=O)CCC(=O)O)CC2)c2c(C)c(C)sc2n1 35.5 µM

Activity change, negative = inhibition, inactive:
CCC(=O)NC(=S)Nc1ccccc1C(=O)OC -2.79%
CCOC(=O)c1c(NC(=O)C(F)(OC)C(F)(F)F)sc2c1CCN(C)C2 (stereo unspecified) -21.2%
CCOc1ccc(Nc2nc(Cc3nnc(SCC(=O)c4ccc(C)c(C)c4)o3)cs2)cc1 -10.2%
CCOC(=O)C1=C(C)NC(=O)NC1c1ccc(OC(=O)c2ccco2)c(OC)c1 (stereo unspecified) -6.92%
Cc1ccc(-c2cc(C(=O)NCc3cccs3)no2)cc1 -8.2%
COc1cccc(-n2nnnc2SCC(=O)Nc2ccc3c(c2)OCCO3)c1 -9.02%
COC(=O)c1c(NC(=S)Nc2ccccc2Cl)sc(C)c1C -9.57%
CCOC(=O)CSc1nnc(Cn2nnc(-c3ccccc3)n2)n1CC -13.4%
Cc1ccc(SCc2cc(=O)n3[nH]c(C)nc3n2)cc1 -16.2%
CCOc1ccc(OCC)c(NC(=O)C2CCN(S(=O)(=O)c3c(C)noc3C)CC2)c1 -8.5%
COc1ccc2c(=O)ccoc2c1 -21.2%
COCC(C)NCc1ccccc1C (stereo unspecified) 2.01%
O=C(CN(C(=O)c1ccccc1Cl)C1CCCCC1)Nc1ccc(Cl)c([N+](=O)[O-])c1 -4.96%

Source: PubChem BioAssay AID894 (National Center for Advancing Translational Sciences (NCATS), 2007)
